# From the supplement of paper PMC10369915
# Some of the results follow. No stated cut-off is given here; in the data, active = 3.2 or more and inactive = the rest. Most of these values are background signal.
# How the values were obtained:
# Experiment in all cases: enrichment score (SH2-bound / input frequency) (ratio); bacterial display of known human phosphotyrosine sites (pTyr-Var adds point mutants) read by sequencing; higher = stronger binding; tyrosines were phosphorylated by kinases first
# Conditions in all cases: peptide library: pTyr-Var
# SHP2 C-SH2 domain E139D = biological target: SHP2 C-SH2 domain E139D
# [1] = biological target: SHP2 C-SH2 domain wild-type
# SHP2 N-SH2 domain L43F = biological target: SHP2 N-SH2 domain L43F
# SHP2 N-SH2 domain T42A = biological target: SHP2 N-SH2 domain T42A
# SHP2 N-SH2 domain T52S = biological target: SHP2 N-SH2 domain T52S
# [2] = biological target: SHP2 N-SH2 domain wild-type
# 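Further: displayed peptides selected on beads carrying the immobilized SH2 domain, with library peptides lacking any tyrosine serving as negative controls.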
Binder,enrichment score (SHP2 C-SH2 domain E139D),enrichment score [1],enrichment score (SHP2 N-SH2 domain L43F),enrichment score (SHP2 N-SH2 domain T42A),enrichment score (SHP2 N-SH2 domain T52S),enrichment score [2]
ADELEYSRTGL [MMUT_Y287_G284E],inactive: 0.459,inactive: 0.578,inactive: 0.411,inactive: 0.489,inactive: 0.58,inactive: 0.628
WCKPPYFSCAV [MMS22L_Y28],active: 3.26,inactive: 2.95,inactive: 3.15,inactive: 2.6,inactive: 3.05,inactive: 3.02
ISIFYYAKGQP [MPZ_Y82_H81Y],inactive: 0.78,inactive: 0.876,inactive: 0.613,inactive: 1.25,inactive: 1.05,inactive: 1.33
RDSQLYAVDYE [MRPS34_Y34],inactive: 0.667,inactive: 0.73,inactive: 0.767,inactive: 0.42,inactive: 0.457,inactive: 0.607
VDTRAYLTSAT [MT-CO1_Y304_F305L],inactive: 0.687,inactive: 0.976,inactive: 0.66,inactive: 0.638,inactive: 0.773,inactive: 0.826
QTPVLYAMLDH [MPZ_Y220],inactive: 1.24,inactive: 1.8,active: 4.03,active: 7.44,active: 5.11,inactive: 2.16
VITDFYVDMKF [MPP4_Y567_YF],inactive: 1.47,inactive: 1.61,inactive: 1.62,inactive: 1.34,inactive: 1.25,inactive: 1.78
VITDYYVDMKF [MPP4_Y567],inactive: 1.29,inactive: 1.26,inactive: 1.28,inactive: 1.59,inactive: 1.51,inactive: 1.32
IWIFHYAKGQP [MPZ_Y82_S78W],inactive: 2.76,inactive: 2.93,inactive: 2.82,inactive: 2.58,inactive: 2.36,inactive: 2.75
LWPIWYSCHRP [MRGPRX1_Y130_R131S],inactive: 0.623,inactive: 0.763,inactive: 0.649,inactive: 0.643,inactive: 0.641,inactive: 0.654
ADRLEYSRTGL [MMUT_Y287_G284R],inactive: 0.815,inactive: 0.225,inactive: 0.738,inactive: 0.645,inactive: 0.847,inactive: 0.354
KIITDYFVDMK [MPP4_Y566_V562I_YF],inactive: 1.26,inactive: 1.28,inactive: 1.07,inactive: 1.22,inactive: 0.989,inactive: 1.04
NAMRRYIEEFQ [MNS1_Y244],inactive: 0.511,inactive: 0.504,inactive: 0.556,inactive: 0.346,inactive: 0.568,inactive: 0.54
WCKPLYFSCAV [MMS22L_Y28_P27L],active: 3.34,inactive: 2.94,active: 3.22,inactive: 2.57,inactive: 3.19,active: 3.36
ISIFRYAKGQP [MPZ_Y82_H81R],inactive: 0.468,inactive: 0.356,inactive: 0.448,inactive: 0.347,inactive: 0.49,inactive: 0.328
LEAFQYIGESQ [MSH2_Y856_E853A],inactive: 1.32,inactive: 1.05,inactive: 0.921,inactive: 0.869,inactive: 1.06,inactive: 1.2
QLPATCMNLGP [MST1R_Y1360_Y1360C],inactive: 1,inactive: 0.833,inactive: 0.881,inactive: 0.764,inactive: 0.728,inactive: 1.05
DDSNPYINVKL [MTHFD1_Y52_L51P],inactive: 0.627,inactive: 0.674,inactive: 0.553,inactive: 0.586,inactive: 0.568,inactive: 0.763
SLNEVYTKNKT [MSH2_Y563_E562V],inactive: 0.632,inactive: 0.611,inactive: 0.611,inactive: 0.584,inactive: 0.665,inactive: 0.753

Binder,enrichment score (SHP2 C-SH2 domain E139D),enrichment score [1],enrichment score (SHP2 N-SH2 domain L43F),enrichment score (SHP2 N-SH2 domain T42A),enrichment score (SHP2 N-SH2 domain T52S),enrichment score [2]
KMGNIYRTEFG [MRPL3_Y265_YF],inactive: 0.652,inactive: 0.585,inactive: 0.676,inactive: 0.581,inactive: 0.67,inactive: 0.89
MLNTNYHLPPS [MT-ATP8_Y33],inactive: 0.899,inactive: 0.884,inactive: 0.983,inactive: 0.828,inactive: 0.936,inactive: 0.833
RQSTLYSFFPK [MSH6_Y8],inactive: 1.46,inactive: 1.55,inactive: 1.24,inactive: 1.71,inactive: 1.24,inactive: 0.954
TEQDPYNSIVR [MMUT_Y364_N366S],inactive: 0.552,inactive: 0.678,inactive: 0.652,inactive: 0.529,inactive: 0.571,inactive: 0.611
QAQMDYRRLQP [MPL_Y591],inactive: 0.539,inactive: 0.653,inactive: 0.57,inactive: 0.458,inactive: 0.666,inactive: 0.617
LLLLFCVVRFC [MPZ_Y177_Y177C_YF],inactive: 1.7,inactive: 1.63,inactive: 1.28,inactive: 1.46,inactive: 2.03,inactive: 1.36
LEEFQYIGELQ [MSH2_Y856_S860L],inactive: 0.982,inactive: 0.774,inactive: 0.85,inactive: 0.807,inactive: 0.69,inactive: 1.02
QTPVLYAMLYH [MPZ_Y220_D224Y],inactive: 0.79,inactive: 0.933,inactive: 0.84,inactive: 0.927,inactive: 0.965,inactive: 0.953
TEQDPSNNIVR [MMUT_Y364_Y364S],inactive: 0.482,inactive: 0.479,inactive: 0.458,inactive: 0.471,inactive: 0.515,inactive: 0.477
KVITDYYVDMK [MPP4_Y566],inactive: 1.19,inactive: 0.901,inactive: 0.84,inactive: 0.982,inactive: 0.701,inactive: 1.1
TTPGPYRSIFF [MPG_Y71_YF],inactive: 0.783,inactive: 1.65,inactive: 1.96,inactive: 2.08,inactive: 2.26,inactive: 0.924
KVITDYFVDMK [MPP4_Y566_YF],inactive: 1.21,inactive: 1.18,inactive: 1.15,inactive: 1.06,inactive: 1.15,inactive: 1.22
ATYRGYDSDNP [MMUT_Y146_H143Y],inactive: 0.442,inactive: 0.594,inactive: 0.538,inactive: 0.457,inactive: 0.561,inactive: 0.518
PHRSIYFSSPK [MPG_Y75_Y71H],inactive: 0.913,inactive: 0.756,inactive: 0.86,inactive: 0.736,inactive: 0.713,inactive: 0.81
ISIFFYAKGQP [MPZ_Y82_H81Y_YF],inactive: 0.623,inactive: 1.11,inactive: 0.7,inactive: 0.774,inactive: 0.509,inactive: 1.09
VDEVLYEDSSA [MTHFS_Y197_T202A],inactive: 0.546,inactive: 0.683,inactive: 0.486,inactive: 0.483,inactive: 0.589,inactive: 0.839
QAQMDYRRWQP [MPL_Y591_L594W],inactive: 0.602,inactive: 0.664,inactive: 0.707,inactive: 0.493,inactive: 0.444,inactive: 0.588
TRDVNYGWVIR [MT-CYB_Y75_I78V],inactive: 0.933,inactive: 0.888,inactive: 0.894,inactive: 0.886,inactive: 0.916,inactive: 1.1
